At least one peptide structure holds a part that was inferred or is arguable (an end, a ring closure or a residue). *1 amine or outer side, *2 acyl side, *3 side chain or, on linkers, in order; H or OH if unused. Where a SMILES comes first, the peptide text is derived from it. [ ]: non-standard residue; d: D form. X1 = O=C([C@H](Cc1ccc(O)cc1)N(C1CCCCC1)[*:1])[*:2]
Test system: growth hormone release
Experiment: Peptide effects on growth hormone release in the pentobarbital-anesthetized rat (plasma GH by RIA)
Type: in vivo
Conditions: for PLASMA GH: 15 min
Procedure: In this evaluation, the procedures described by W. A. Murphy et al., Endocrinology 109: 491-495 (1980), were employed.
In growth hormone (GH) experiments, male rats (Charles Rivers) were anesthetized with NEMBUTAL® (6 mg per 100 g body weight) which also served to maintain stimulated plasma GH levels. Exactly 30 minutes after the rats were anesthetized, 0.5 mL of saline or the test peptide in saline was administered as a SC bolus. A 1 mL blood sample was drawn from the jugular vein 15 minutes after the injection of the peptide in saline or at the indicated times in the time course assay (p26). GH levels were determined using NIADDKD rat GH RIA components.

[1] = dose 0.2 ug/100 g BW SC, saline control 59 ± 9
[2] = dose 2 ug/100 g BW SC, saline control 59 ± 9
[3] = dose 20 ug/100 g BW SC, saline control 59 ± 9
[4] = relative to GRF(1-29)NH2 (=1), estimated by single dose comparisons to pooled standard responses

Row | Structure (SMILES) | PLASMA GH [1] | PLASMA GH [2] | PLASMA GH [3] | POTENCY [4] | PLASMA GH (dose 0.2 ug/100 g BW SC, saline control 325 ± 52) | PLASMA GH (dose 2 ug/100 g BW SC, saline control 325 ± 52) | PLASMA GH (dose 20 ug/100 g BW SC, saline control 325 ± 52) | PLASMA GH (dose 0.12 ug/100 g BW SC, saline control 243 ± 25) | PLASMA GH (dose 0.30 ug/100 g BW SC, saline control 243 ± 25) | POTENCY (relative to GRF(1-29)NH2 (=1) as standard, by 4point assay (95% CI limits in parentheses))
1 | CC[C@H](C)[C@H](NC(=O)[C@H](C)NC(=O)[C@H](CC(=O)O)NC(=O)[C@H](C)NC(=O)[C@H](Cc1ccc(O)cc1)NCc1ccccc1)C(=O)N[C@@H](Cc1ccccc1)C(=O)N[C@H](C(=O)N[C@@H](CC(N)=O)C(=O)N[C@@H](CO)C(=O)N[C@@H](Cc1ccc(O)cc1)C(=O)N[C@@H](CCCNC(=N)N)C(=O)N[C@@H](CCCCN)C(=O)N[C@H](C(=O)N[C@@H](CC(C)C)C(=O)NCC(=O)N[C@@H](CCC(N)=O)C(=O)N[C@@H](CC(C)C)C(=O)N[C@@H](CO)C(=O)N[C@@H](C)C(=O)N[C@@H](CCCNC(=N)N)C(=O)N[C@@H](CCCCN)C(=O)N[C@@H](CC(C)C)C(=O)N[C@@H](CC(C)C)C(=O)N[C@@H](CCC(N)=O)C(=O)N[C@@H](CC(=O)O)C(=O)N[C@H](C(=O)N[C@@H](CCSC)C(=O)N[C@@H](CO)C(=O)N[C@@H](CCCNC(=N)N)C(N)=O)[C@@H](C)CC)C(C)C)[C@@H](C)O [N^α benzylTyr^1, [N^α -Benzyl-Tyr^1]GRF(1-29)NH2] | 213 ± 32 ng/mL | 606 ± 51 ng/mL | 1063 ± 140 ng/mL | ~ 50 | – | – | – | – | – | –
2 | CC[C@H](C)[C@H](NC(=O)[C@H](C)NC(=O)[C@H](CC(=O)O)NC(=O)[C@H](C)NC(=O)[C@H](Cc1ccc(O)cc1)NC1CCCCC1)C(=O)N[C@@H](Cc1ccccc1)C(=O)N[C@H](C(=O)N[C@@H](CC(N)=O)C(=O)N[C@@H](CO)C(=O)N[C@@H](Cc1ccc(O)cc1)C(=O)N[C@@H](CCCNC(=N)N)C(=O)N[C@@H](CCCCN)C(=O)N[C@H](C(=O)N[C@@H](CC(C)C)C(=O)NCC(=O)N[C@@H](CCC(N)=O)C(=O)N[C@@H](CC(C)C)C(=O)N[C@@H](CO)C(=O)N[C@@H](C)C(=O)N[C@@H](CCCNC(=N)N)C(=O)N[C@@H](CCCCN)C(=O)N[C@@H](CC(C)C)C(=O)N[C@@H](CC(C)C)C(=O)N[C@@H](CCC(N)=O)C(=O)N[C@@H](CC(=O)O)C(=O)N[C@H](C(=O)N[C@@H](CCSC)C(=O)N[C@@H](CO)C(=O)N[C@@H](CCCNC(=N)N)C(N)=O)[C@@H](C)CC)C(C)C)[C@@H](C)O [N^α cyclohexylTyr^1] (H-[X1]ADAIFTNSYRKVLGQLSARKLLQDIMSR-NH2) | 58 ± 21 ng/mL | 56 ± 10 ng/mL | 727 ± 144 ng/mL | ~ 2 | – | – | – | – | – | –
3 | CC[C@H](C)[C@H](NC(=O)[C@H](C)NC(=O)[C@H](CC(=O)O)NC(=O)[C@@H](C)NC(=O)[C@H](Cc1ccc(O)cc1)NC(C)C)C(=O)N[C@@H](Cc1ccccc1)C(=O)N[C@H](C(=O)N[C@@H](CC(N)=O)C(=O)N[C@@H](CO)C(=O)N[C@@H](Cc1ccc(O)cc1)C(=O)N[C@@H](CCCNC(=N)N)C(=O)N[C@@H](CCCCN)C(=O)N[C@H](C(=O)N[C@@H](CC(C)C)C(=O)NCC(=O)N[C@@H](CCC(N)=O)C(=O)N[C@@H](CC(C)C)C(=O)N[C@@H](CO)C(=O)N[C@@H](C)C(=O)N[C@@H](CCCNC(=N)N)C(=O)N[C@@H](CCCCN)C(=O)N[C@@H](CC(C)C)C(=O)N[C@@H](CC(C)C)C(=O)N[C@@H](CCC(N)=O)C(=O)N[C@@H](CC(=O)O)C(=O)N[C@H](C(=O)N[C@@H](CCSC)C(=O)N[C@@H](CO)C(=O)N[C@@H](CCCNC(=N)N)C(N)=O)[C@@H](C)CC)C(C)C)[C@@H](C)O [N^α iPrTyr^1, D-Ala^2, [N^α -Isopropyl-Tyr^1,D-Ala^2]GRF(1-29)NH2] | – | – | – | ~ 70 | 1608 ± 274 ng/mL | 3836 ± 397 ng/mL | 3099 ± 485 ng/mL | – | – | –
4 | CCCC[C@H](NC(=O)[C@@H](NC(=O)[C@H](CC(=O)O)NC(=O)[C@H](CCC(N)=O)NC(=O)[C@H](CC(C)C)NC(=O)[C@H](CC(C)C)NC(=O)[C@H](CCCCN)NC(=O)[C@H](CCCNC(=N)N)NC(=O)[C@H](C)NC(=O)[C@H](CO)NC(=O)[C@H](CC(C)C)NC(=O)[C@H](CCC(N)=O)NC(=O)CNC(=O)[C@H](CC(C)C)NC(=O)[C@@H](NC(=O)[C@H](CCCCN)NC(=O)[C@H](CCCNC(=N)N)NC(=O)[C@H](Cc1ccc(O)cc1)NC(=O)[C@H](CO)NC(=O)[C@H](CC(N)=O)NC(=O)[C@@H](NC(=O)[C@H](Cc1ccccc1)NC(=O)[C@@H](NC(=O)[C@H](C)NC(=O)[C@H](CC(=O)O)NC(=O)[C@H](C)NC(=O)[C@H](Cc1ccc(O)cc1)NC(C)C)[C@@H](C)CC)[C@@H](C)O)C(C)C)[C@@H](C)CC)C(=O)N[C@@H](CO)C(=O)N[C@@H](CCCNC(=N)N)C(N)=O [N^α iPrTyr^1, Nle^27, [N^α -Isopropyl-Tyr^1,Nle^27]GRF(1-29)NH2] | – | – | – | – | – | – | – | 685 ± 94 ng/mL | 1020 ± 208 ng/mL | 41

Reference: patent US5112808A, “Alkylated hormone-releasing peptides and method of treatig mammals therewith” (American Cyanamid Company, priority 1988, dated 1992)
